Reference: the antibiotic and cytotoxicity screens of Wong et al. (2023)
The other results are listed elsewhere or left out.

tested on: S. aureus RN4220; test: growth inhibition call (relative growth <= 0.2); conditions: 50 µM

Growth inhibition call, inactive:
CCOC(=O)N(C)C[C@H]1OCc2cnnn2CCCC(=O)N([C@@H](C)CO)C[C@@H]1C
O=C1CO[C@H]2CN(C(=O)COc3ccccc3)C[C@@H]2N1
C[C@H]1CCCCO[C@@H](CN(C)C(=O)Nc2ccc(F)cc2)[C@@H](C)CN([C@@H](C)CO)C(=O)c2cc(NC(=O)C3CCCCC3)ccc2O1
Oc1c(Cl)cc(Cl)cc1Sc1cc(Cl)cc(Cl)c1O
COc1ccccc1-c1cnc2c(c1)C(=O)N([C@@H](C)CO)C[C@@H](C)[C@@H](CN(C)C(=O)c1cccnc1)O2
C[C@H]1CN([C@@H](C)CO)C(=O)c2cc(NC(=O)CCCN(C)C)ccc2O[C@@H]1CN(C)S(=O)(=O)c1ccccc1
Nc1ncnc2c1ncn2[C@@H]1O[C@H](CO)C[C@H]1O
Cc1cc(C(=O)Nc2cccc3c2O[C@@H](CN(C)S(=O)(=O)c2ccccc2)[C@H](C)CN([C@@H](C)CO)C3=O)n(C)n1
COC(=O)[C@H](Cc1ccccc1)N1CC2=C[C@@H](C3CC3)n3c(=O)n(C)c(=O)n3[C@H]2[C@@H]1[C@@H](O)CCn1cc(C(=O)NO)nn1
C[C@@H]1CCCCO[C@@H](CN(C)S(C)(=O)=O)[C@H](C)CN([C@H](C)CO)C(=O)c2cc(NC(=O)Nc3cccc4ccccc34)ccc2O1
